Assay results taken from the supplement of paper PMC10126150.
Values marked as one replicate rest on one cluster of the flow cell; about a third of the high ones do not repeat.

Tested on: ATP
Test: switch fluorescence ratio, 500 uM ATP over buffer (Cy3 cluster intensity, sum of 5 cycles each) (fold (ratio)); higher = stronger signal-on switching upon ATP binding; sequences stand for … in TCGTCGGCAGCGTCAGATGTGTATAAGAGACAGTTTTTTTTTTTTTTTTTTTTTTTTT…TC
Conditions: aptamer strand: ATP DNA aptamer (quencher-CACCTGGGGGAGTATTGCGGAGGAAGG + anchor), 100 nM annealed; ATP concentration: 500 uM; one replicate
Method in brief: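 The fluorescence ratio divides summed target-cycle Cy3 intensity by summed buffer-cycle Cy3 intensity for each cluster and is averaged per switch-domain sequence. Cy3-labelled switching-strand clusters on a modified Illumina MiSeq flow-cell were annealed to 100 nM quencher-labelled ATP aptamer, then imaged in selection buffer and again after 15 min with 500 uM ATP at 22 °C. Five such cycles were run, with NaOH stripping and re-annealing between them, and clusters outside 100-1000 RFU were excluded.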
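Also: ATP exposure 15 min at 22 °C before imaging.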

Sequence | switch fluorescence ratio
GCTGTCTTTT | 1.03
CGGGTTATAC | 1.44
TTACTGTGCG | 1
GGTGGTGGTC | 1.03
GCAACCGAAA | 2.06
ATTGTGATCC | 1.01
ACTCGATGTC | 0.984
ATAATGACCC | 1.01
TGATCGGAGT | 1
TATCCCGTAC | 1.43
TTATACTCTC | 0.998
GGGTGAACTA | 0.974
GTGCGTGAGG | 1.02
TGTCGATTAA | 1
TTGCAAGATG | 1.01
TCTCAGTAAA | 0.997
GTTACAGTGT | 1
TGAGCTGATA | 1.01
TGCAACATCG | 1.03
TACGAAATTA | 1.28
CGGTAAGAAA | 1.01
GGACTTGGCC | 0.999
GCTATTTCCC | 1.15

Sequence | switch fluorescence ratio
TTGCTGTTAT | 1
AGGGGTCCAA | 0.974
TAAGGGTAAA | 0.983
AGCTTGACGT | 1.03
ACTATCTTGG | 1.02
TACAGCGGA | 1.04
TAGAATATGC | 1.05
CTTCCCTAGC | 3.39
GGGCCGCGTG | 0.972
CGGTATGCTA | 0.975
CAACTGCCGA | 1.09
AGCATAAGCT | 1.01
GGCAGGCCAG | 1.06
GTAATTGGT | 0.976
GTATTTAGGC | 1.01
TATATTGATG | 0.976
ATGAAAATTC | 0.996
TCCAGAGAAG | 1
GACATAAGGA | 1.01
GAACATTGAT | 1
CATGCTGTTA | 1.03
CACCAGTGGT | 1.05
CCTGAAAGCT | 1.26

Sequence | switch fluorescence ratio
GTAATAAAGT | 1
ACTCAAAGG | 1.81
GTACCCGCTG | 1.08
GCTCCACTTA | 1.2
AAATAAGCAT | 0.992
CCCCGAGGTT | 1.78
GGGGCATATC | 1.04
CAAGCATGTC | 1.04
GAGATGGAGG | 1.02
TTGGAACA | 1.09
AGTATGTAGG | 1
TTTTACTGGT | 1
AATCCACAGA | 1.04
TTCAATGTGG | 0.986
CTCTATCGAG | 0.982
TGGTCGGGCC | 1
ACAAATTGAC | 1.05
TAAATCAGCT | 0.998
ACTTCGATGA | 1.05
TATCCTTGGG | 0.984
ATGCTAGATG | 1.04
ACATCATCTA | 1.03
CGTTTTGCTC | 1.05

Sequence | switch fluorescence ratio
CATTGGGCAT | 1.04
TAAGGGGTA | 0.996
CCAGCCTGGC | 1.03
CTGTAATGCG | 1.07
TCATTAGATA | 1.01
GATGTAAAGA | 0.968
TCCGGTGAGT | 1.07
TATCATTAAC | 0.964
CGGGAGTACG | 0.951
ACGCCAGGGC | 1.1
CGAGTCAGTC | 1.08
GTCTAAGCTG | 0.979
TGCAACCCGT | 1.13
ACCGGTTGCA | 1.04
AAAAGGGAC | 1.1
AATTCTGCTG | 0.931
CATGGTGCTC | 1.04
CATTATATA | 1.02
GGAGCCTCTT | 1.02
TTCGATTGGT | 1.01
CTATGTATGA | 0.978
CAAACGGCTT | 0.996
GCCACCGGG | 1.36

Sequence | switch fluorescence ratio
TGTTGGAAGT | 0.938
GATGTAATCG | 1.03
TGGGAGCAGA | 0.987
GCAGGAAGAT | 1
AGGAGCGATG | 1.05
GTCTAAACTC | 1.02
CTGGCGAGCC | 1.03
TCTTTAGGGG | 0.953
TAAGCGTAAT | 1.06
AGTGCGTTAG | 0.979
TCGCTGTGAT | 1.01
TTTAGGTGG | 0.961
GTGATTAATT | 0.958
GAGTCTACGG | 0.988
TCTTAGGGG | 1.01
AAGGTCTGAT | 0.996
TCAGATATGG | 0.987
CGGGCTTAGC | 1.03
TTGAGGAATT | 0.974
TAGCCAGCTT | 1.01
TATTGTGCGC | 0.984
GATATCCGCG | 1.31
AGCACGGCCT | 1.02

Sequence | switch fluorescence ratio
ACCGGGCCTC | 1.02
CATGCAAACC | 1.27
CGTGGCCGCT | 1.03
TCCTGTGCGC | 1.5
CAAGGATAGA | 1.05
GCAAGGGTCT | 1.03
AGTGTTGCGC | 0.946
TTCTCATTGT | 0.982
GTTGGGCCAA | 1.02
ACAAGGGTTG | 1.03
TCAACATTAA | 0.976
ATGCATCG | 1
CTATCTTTC | 1.01
GAATAAGCC | 1.06
TGGTATCAGG | 1.05
CTGATTTGCC | 1.03
CCATGTAGTT | 0.943
GAATGGGCTC | 0.949
CCAAAATGGA | 0.992
CCATGTGTA | 0.975
CAGCTATTTT | 0.999
AGAACCGTGC | 1.36
ATCGCAGGTT | 1.03

Sequence | switch fluorescence ratio
AATCTCCCAC | 1.14
GATTGTTTGA | 1.02
AGTGATAAAT | 0.994
GCATGTTGTG | 0.991
TCGCGCACGT | 1.09
GCTGATTTCA | 1
CGTAAAGACT | 0.982
CTTAGTTTCC | 1.03
CAACTATTGG | 1.02
CCGAGAAGTC | 1.44
ACTTACTATT | 1.15
GTTCAATGGG | 0.97
GGTACGCGTA | 0.921
TCGGGCTTGA | 0.961
CGAGCGGTTA | 1.02
CAGACGGACC | 1.38
GTTGCCATAC | 1.8
CCGGGTGAGG | 1.06
GGGGTTAGG | 1.01
